# Source: PubChem BioAssay (NCATS)
# Values joined by “and” are separate entries in the source; they are usually repeats but may differ in a detail not shown here. Identical values can stand only once. Inconclusive results, whose numbers are uncertain, are shown with a selection of clear calls. A potency beside an inconclusive call is a rough fit, not a confirmed value. Active and inactive are the calls of the source. Calls follow the shape of the dose curve; as a rule, active = well fitted inhibition curve with a large enough effect; inconclusive = small, poorly fitted or top-dose-only effect; inactive = flat fitted curve, though single readings scatter.
# Assay: P-glycoprotein substrates identified in KB-8-5-11 adenocarcinoma cell line, qHTS therapeutic library screen (AID 1346987); also: nearly all actives have a fitted effect of over 65% in size
# Settings: KB-8-5-11 (P-gp overexpressing) viability, CellTiter-Glo, 72 h; series mostly up to 44.5 µM; activity change, negative = cytotoxicity: at the top concentration
# In short: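 Compounds are pinned in dose-response onto KB-8-5-11 cells (500 cells/well, colchicine-free medium) and left 72 h at 37 degree C. CellTiter-Glo luminescence then yields AC50 values.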
# % is scaled to controls: 0 for no effect and ±100 for the full control effect; potency is read from the fitted curve at half-maximal effect; tags tell the direction and shape of the fitted curve.
Compound,Potency,"activity change, negative = cytotoxicity"
Clc1ccc(CCC(Cn2ccnc2)Sc2c(Cl)cccc2Cl)cc1 (centres undefined),"inconclusive: 6.99 µM [inhibitor, partial curve] and inconclusive: 20.9 µM [inhibitor, partial curve]",–
Cc1ccc(-c2nc3ccc(C)cn3c2CC(=O)N(C)C)cc1,"inconclusive: 23.1 µM [inhibitor, single point]",–
CCN(CC)C(=O)[C@@H]1C=C2c3cccc4[nH]cc(c34)C[C@H]2N(C)C1,"inconclusive: 70.8 µM [inhibitor, partial curve, poor fit] and inconclusive: 23.1 µM [inhibitor, single point]",–
CCN(CC)CCc1c[nH]c2ccccc12,–,inactive: 2.05% [at 163 µM]
CCC(=O)C(CC(C)N(C)C)(c1ccccc1)c1ccccc1 (centres undefined),"inconclusive: 17.8 µM [inhibitor, partial curve]",–
CC=C(C)C(=O)O[C@H]1C(C)=C2[C@@H]3OC(=O)[C@@](C)(O)[C@@]3(O)[C@@H](OC(=O)CCC)C[C@](C)(OC(C)=O)[C@@H]2[C@@H]1OC(=O)CCCCCCC,active: 1.87 µM,–
CO[C@]12CC[C@@]3(C[C@@H]1[C@](C)(O)C(C)(C)C)[C@@H]1Cc4ccc(O)c5c4[C@@]3(CCN1CC1CC1)[C@H]2O5,"inconclusive: 63.1 µM [inhibitor, single point]",–
C=CCN1C[C@H](C)N([C@H](c2ccc(C(=O)N(CC)CC)cc2)c2cccc(OC)c2)C[C@H]1C,"inconclusive: 0.517 µM [inhibitor, partial curve, poor fit]",–
CCOC(=O)C1(CCc2ccccc2)CCN(Cc2ccc(NC(C)=O)cc2)CC1,"inconclusive: 9.2 µM [inhibitor, partial curve]",–
COC1CC(OC2CCC3(C=O)C(CCC4C3CCC3(C)C(C5=CC(=O)OC5)CCC43O)C2)OC(C)C1OC1OC(CO)C(O)C(O)C1O (centres undefined),active: 0.172 µM,–
O=C(CCCN1CCC2(CC1)C(=O)NCN2c1ccccc1)c1ccc(F)cc1,"inconclusive: 23.1 µM [inhibitor, single point]",–
CC(=O)OC[C@]12C[C@H](O)C(C)=C[C@H]1O[C@@H]1[C@H](O)[C@@H](O)[C@@]2(C)[C@]12CO2,active: 4.04 µM,–
C[C@]12C[C@H]3S[C@H]3C[C@@H]1CC[C@@H]1[C@@H]2CC[C@]2(C)[C@@H](O)CC[C@@H]12,"inconclusive: 8.8 µM [inhibitor, single point]",–
COP(=S)(OC)Oc1ccc(Sc2ccc(OP(=S)(OC)OC)cc2)cc1,"inconclusive: 20.6 µM [inhibitor, single point]",–
O=C1C(I)=CC(=C(c2cc(I)c(O)c(I)c2)c2ccccc2C(=O)O)C=C1I,"inconclusive: 18.4 µM [inhibitor, single point]",–
COc1cc([C@@H]2c3cc4c(cc3[C@@H](O)C3COC(=O)C32)OCO4)cc(OC)c1O (some centres undefined),active: 0.118 µM,–
O=c1c2ccccc2[se]n1-c1ccccc1,"inconclusive: 20.6 µM [inhibitor, single point]",–
CN1[C@@H]2CC[C@H]1CC(OC(=O)c1cc(Cl)cc(Cl)c1)C2 (some centres undefined),"inconclusive: 25.9 µM [inhibitor, partial curve, poor fit]",–
Cc1ccccc1-n1c(Cn2ncc3c(N)ncnc32)nc2cccc(C)c2c1=O,inactive,–
CN1C(=O)CN=C(c2ccccc2)c2cc(Cl)ccc21,"inconclusive: 29.1 µM [inhibitor, single point]",–

Compound,Potency,"activity change, negative = cytotoxicity"
Clc1ccc(COC(Cn2ccnc2)c2ccc(Cl)cc2Cl)cc1 (centres undefined),"inconclusive: 23.1 µM [inhibitor, single point] and inconclusive: 37.2 µM [inhibitor, single point]",–
c1csc(C2(N3CCCCC3)CCCCC2)c1,–,inactive: -3.63%
N#C[C@H](O[C@@H]1O[C@H](CO[C@@H]2O[C@H](CO)[C@H](O)[C@H](O)[C@H]2O)[C@H](O)[C@H](O)[C@H]1O)c1ccccc1,active: 20.9 µM,–
COC1CC(OC2CCC3(C=O)C(CCC4C3CCC3(C)C(C5=CC(=O)OC5)CCC43O)C2)OC(C)C1O (centres undefined),active: 0.178 µM,–
CCCCCCC1C(=O)O[C@H](C)[C@H](NC(=O)c2cccc(NC=O)c2O)C(=O)O[C@@H](C)[C@@H]1OC(=O)CC(C)C (some centres undefined),"inconclusive: 0.058 µM [inhibitor, full curve]",–
Cc1cccc(NC(=O)NC2N=C(c3ccccc3)c3ccccc3N(CC(=O)c3ccccc3C)C2=O)c1 (centres undefined),–,inactive: -7.57%
CN(C(=O)CN1C(=O)COc2cc(Cl)c(Cl)cc21)[C@@H](CN1CCCC1)c1ccc(-c2cccc(C(N)=O)c2)cc1,"inconclusive: 20.6 µM [inhibitor, single point]",–
Nc1c(Cl)c(Cl)c(Cl)c(Cl)c1Cl,–,inactive: -2.12% [at 93.4 µM]
CCN1CCN(C(=O)Cc2ccc(Nc3ncc(F)c(Nc4ccc(C(=O)Nc5ccccc5Cl)cc4)n3)cc2)CC1,active: 2.96 µM and active: 1.16 µM,–
CC(C)(C)C(O)C(Oc1ccc(Cl)cc1)n1cncn1 (centres undefined),"inconclusive: 56.2 µM [inhibitor, single point]",–
CC(C)(O)C=CC(=O)[C@](C)(O)[C@H]1[C@H](O)C[C@]2(C)[C@@H]3CC=C4[C@@H](C=C(O)C(=O)C4(C)C)[C@]3(C)C(=O)C[C@@]12C,active: 0.118 µM,–
CN1C[C@H](CNC(=O)OCc2ccccc2)C[C@@H]2c3cccc4c3c(cn4C)C[C@H]21,"inconclusive: 9.2 µM [inhibitor, partial curve]",–
COc1ccc(CC2C(=O)NC(C)C(=O)N(C)C3Cc4ccc(cc4)Oc4cc(ccc4OC4OC(CO)C(O)C(O)C4O)CC(C(=O)NC(C)C(=O)NC(CCC(=O)O)C(=O)N2C)N(C)C3=O)cc1 (centres undefined),–,inactive: -22.7% [at 9.29 µM]
Cc1ccc(-n2nccn2)c(C(=O)N2CCN(c3nc4cc(Cl)ccc4o3)CCC2C)c1 (centres undefined),"inconclusive: 20.6 µM [inhibitor, single point]",–
C/C=C(/C)C(=O)O[C@H]1C(C)=C2[C@H]([C@@H]1OC(=O)CCCCCCC)[C@@](C)(OC(C)=O)C[C@H](OC(=O)CCC)[C@@]1(O)[C@H]2OC(=O)[C@@]1(C)O,active: 2.06 µM,–
CCN(CC)C(=O)N[C@@H]1C=C2c3cccc4[nH]cc(c34)C[C@@H]2N(C)C1,"inconclusive: 20.6 µM [inhibitor, single point]",–
C[C@]12CC[C@@H]3c4ccc(OC(=O)N(CCCl)CCCl)cc4CC[C@H]3[C@@H]1CC[C@@H]2O,"inconclusive: 20.6 µM [inhibitor, single point]",–
C[C@H](CCC(=O)O)C[C@H](C)C[C@H](C)C(=O)/C=C(\O)[C@H](C)C[C@H](C)C/C=C/[C@@H](C)[C@@H](O)[C@@H](C)[C@@H](O)C[C@@H]1CC[C@@](C)([C@H]2CC[C@@](C)([C@@H](C)O)O2)O1,"inconclusive: 7.96 µM [inhibitor, single point]",–
CC(=Cc1csc(C)n1)[C@@H]1C[C@H]2O[C@]2(C)CCC[C@H](C)[C@@H](O)[C@@H](C)C(=O)C(C)(C)[C@@H](O)CC(=O)O1,active: 0.001 µM,–
